Test results as given in PubChem BioAssay AID1468 (National Center for Advancing Translational Sciences (NCATS), 2008).
Among all 280,000 compounds or so, about 1,100 (0.39%) were called active. The shares of active, inactive and inconclusive entries below differ from those in the screen. Calls follow the shape of the dose curve; as a rule, active = well fitted inhibition curve with a large enough effect; inconclusive = small, poorly fitted or top-dose-only effect, or effect the other way; inactive = flat fitted curve, though single readings scatter. No potency is given beside an inconclusive call; the fits are too rough.
% is scaled to controls: 0 for no effect and ±100 for the full control effect; potency is read from the fitted curve at half-maximal effect; tags tell the direction and shape of the fitted curve.
Also: nearly all actives have a fitted effect of over 55% in size.

These compounds were tested against Microtubule-associated protein tau (Homo sapiens) (UniProt P10636) (assay: qHTS for Inhibitors of Tau Fibril Formation, Fluorescence Polarization). Details: K18 P301L tau heparin fibrillization, Alexa594 FP, 6 h; series mostly up to 57.7 µM; activity, negative = inhibition: at the top concentration.
Chain of UniProt P10636 (P10636 whole entry, looked up): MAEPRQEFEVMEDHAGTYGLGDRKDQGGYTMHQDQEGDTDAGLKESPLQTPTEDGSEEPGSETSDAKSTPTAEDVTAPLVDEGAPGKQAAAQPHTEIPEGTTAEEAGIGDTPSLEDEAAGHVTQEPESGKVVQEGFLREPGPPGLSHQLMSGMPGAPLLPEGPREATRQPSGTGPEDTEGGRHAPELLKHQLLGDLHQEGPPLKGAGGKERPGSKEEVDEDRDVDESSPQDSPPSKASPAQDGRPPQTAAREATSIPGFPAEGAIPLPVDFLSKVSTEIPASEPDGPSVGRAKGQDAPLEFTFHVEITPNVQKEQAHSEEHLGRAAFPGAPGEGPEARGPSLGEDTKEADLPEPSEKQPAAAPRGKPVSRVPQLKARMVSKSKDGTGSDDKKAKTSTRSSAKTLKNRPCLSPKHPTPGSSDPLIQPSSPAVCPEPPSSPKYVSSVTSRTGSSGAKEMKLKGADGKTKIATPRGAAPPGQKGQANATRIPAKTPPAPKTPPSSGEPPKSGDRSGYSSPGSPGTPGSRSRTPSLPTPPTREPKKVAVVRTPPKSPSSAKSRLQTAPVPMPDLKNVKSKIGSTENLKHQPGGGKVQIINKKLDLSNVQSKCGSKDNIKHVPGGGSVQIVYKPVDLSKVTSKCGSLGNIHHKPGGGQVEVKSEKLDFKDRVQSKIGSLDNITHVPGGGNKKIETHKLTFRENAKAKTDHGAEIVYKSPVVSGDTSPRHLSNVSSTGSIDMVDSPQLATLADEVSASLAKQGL
Outline: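 Quantitative HTS format: compounds meet 15 uM recombinant K18 P301L tau and Alexa 594-tau tracer in 100 mM sodium acetate pH 7; 20 uM heparin triggers fibrillization at 37 C over 6 hr; FP gives the signal.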
`CC(C)(C)NC(=O)COc1ccc(CNc2ccc3[nH]c(=O)[nH]c3c2)cc1` was tested, and the Potency was inconclusive [inhibitor, single point]. With `Cc1ccc(-c2noc(CNC(=O)COc3cc(C)c(Br)c(C)c3)n2)cc1` the Potency was inconclusive [inhibitor, partial curve, poor fit]. For `CCOCCc1nnc(NC(=O)C(=O)c2cc(C)n(-c3cccc(C)c3)c2C)s1`, the “activity, negative = inhibition” value was inactive: -12.3%. `COc1ccc(NC2CC(=O)N(c3cccc(C)c3)C2=O)cc1` (centres undefined) was tested, and the “activity, negative = inhibition” value was inactive: 4.54%. With `O=C(CCNc1ccc(Cl)cc1)c1cccs1` the Potency was inconclusive [activator, single point]. In the case of `CCC(Sc1ncccc1C(=O)O)C(=O)N1CCCC1` (centres undefined), the Potency is reported as inconclusive [inhibitor, single point]. For `COc1ccc(NC(=O)c2ccc(=O)[nH]c2)cc1S(=O)(=O)N1CCCCC1`, the “activity, negative = inhibition” value was inactive: 4.62%. With `CN(C)CCN(C(=O)c1ccco1)c1nc2c(F)cc(F)cc2s1` the Potency was inconclusive [inhibitor, single point]. `COc1ccc(S(=O)(=O)N(CC(=O)Nc2ccc(F)c(Cl)c2)c2ccc(C)cc2)cc1OC` was tested, and the Potency was inconclusive [inhibitor, partial curve]. With `COc1ccc(/C=N/NC(=O)Cc2csc(Nc3cccc(C(F)(F)F)c3)n2)cc1C` the Potency was inconclusive [activator, single point]. For `Cc1ccc(NC(=O)CSc2nc3ccc(Br)cc3[nH]2)c(C)c1`, the Potency was active: 22.4 µM. For `CN(C)S(=O)(=O)Oc1cccc(C(=O)Nc2ccc(Cl)c(Cl)c2)c1`, the Potency was active: 20 µM. `COc1cccc2c1C(=O)c1c(O)c3c(c(O)c1C2=O)C[C@@](O)(C(=O)CO)C[C@@H]3O[C@H]1C[C@H](N)[C@H](O)[C@H](C)O1` was tested, and the Potency was active: 25.1 µM. `CCOC(=O)c1ccc(NC(=O)c2cc3c(C)nn(-c4ccccc4Cl)c3s2)s1` was tested, and the Potency was inconclusive [inhibitor, single point]. With `COc1ccc(OC)c(/C=C/C(=O)N2C(=O)c3cccc(N)c3C2=O)c1` the Potency was inconclusive [inhibitor, partial curve]. For `Cc1ccccc1NC(=S)NC(NC(=O)c1ccccc1C)C(Cl)(Cl)Cl` (centres undefined), the “activity, negative = inhibition” value was inactive: 0.377%. With `CC(=O)Nc1ccc(S(=O)(=O)N2CCN(C(C)CCc3ccccc3)CC2)cc1` (centres undefined) the Potency was inconclusive [inhibitor, single point]. In the case of `Cc1cc(C)n(-c2nnc(Nc3ccc(C)c(C)c3)c3ccccc23)n1`, the “activity, negative = inhibition” value is reported as inactive: -4.97%. With `CC1CCN(S(=O)(=O)Cc2ccccc2Cl)CC1` the Potency was inconclusive [inhibitor, partial curve, poor fit]. With `CN(c1ccccc1)S(=O)(=O)c1ccc(NC(=O)c2nc(S(C)(=O)=O)ncc2Cl)cc1` the Potency was inconclusive [inhibitor, partial curve]. In the case of `COc1ccc(-c2c(C#N)c(SCC(=O)Nc3ccccc3C)nc(C)c2C(=O)Nc2ccc(Cl)cc2)cc1`, the Potency is reported as inconclusive [inhibitor, partial curve]. For `CC(=O)Nc1ccc(N2N=C(C)C(N=Nc3ccccc3)C2=O)cc1` (centres undefined), the “activity, negative = inhibition” value was inactive: 3.62%. `Cc1cc(O)c(C(c2cccc(F)c2)N2CCN(c3ccccc3)CC2)c(=O)n1Cc1ccco1` (centres undefined) was tested, and the Potency was inconclusive [inhibitor, single point]. With `CN=c1scc(-c2ccc([N+](=O)[O-])cc2)n1/N=C/c1ccco1` the “activity, negative = inhibition” value was inactive: -6.29%. With `CC(C)NC(=S)N/N=C1\CCCCc2ccccc21` the “activity, negative = inhibition” value was inactive: -13%. With `CCOC(=O)COc1ccc(C2C(C(=O)OC)=C(C)NC3=C2C(=O)c2ccccc23)cc1Cl` (centres undefined) the Potency was inconclusive [inhibitor, partial curve, poor fit]. `COc1cccc(CNC(=O)c2cnc3sc(N4CCCC4)nn3c2=O)c1OC` was tested, and the “activity, negative = inhibition” value was inactive: -2.95%. With `CSc1ccc(CCNC(=O)NCc2noc3ccccc23)cc1` the “activity, negative = inhibition” value was inactive: -10.7%. With `O=C1N/C(=C/c2ccsc2)C(=O)N1c1ccccc1` the Potency was inconclusive [inhibitor, single point]. In the case of `O=C(Nc1ccc(Cl)cc1)Nc1ccccc1NS(=O)(=O)c1cccs1`, the Potency is reported as inconclusive [inhibitor, single point]. In the case of `Cc1cccc(NC(=O)Cn2cc(C(=O)C3CCCCC3)c3ccccc32)c1`, the Potency is reported as inconclusive [inhibitor, partial curve]. For `c1cc2c3c(cccc3c1)C(N1CCOCC1)=N2`, the “activity, negative = inhibition” value was inactive: 9.17%. With `Cc1c(-c2ccccc2)oc2c(C(=O)OCC(=O)Nc3ccc(C(N)=O)cc3)cccc2c1=O` the Potency was inconclusive [inhibitor, partial curve]. In the case of `S=c1[nH]cnc2sc(Nc3ccccc3)nc12`, the Potency is reported as inconclusive [inhibitor, partial curve, poor fit]. For `c1ccc2c(c1)CCOC2CNCCCN1CCCCC1` (centres undefined), the “activity, negative = inhibition” value was inactive: 2.2%. `CCOC(=O)c1oc2ccc(S(=O)(=O)n3nc(-c4ccc(C)cc4)cc3N)cc2c1C` was tested, and the Potency was inconclusive [inhibitor, partial curve]. With `Cc1cc(S(=O)(=O)N2CCN(Cc3noc(CCC(=O)N4CCCCC4)n3)CC2)ccc1F` the “activity, negative = inhibition” value was inactive: 2.79%. `O=C(Nc1ccc(-c2cn3ccsc3n2)cc1)c1ccc(F)c(S(=O)(=O)N2CCOCC2)c1` was tested, and the Potency was inconclusive [inhibitor, single point]. In the case of `CCCCN1/C(=C/c2ccc3ccccc3[n+]2CC)Sc2ccccc21`, the “activity, negative = inhibition” value is reported as inactive: -6.66%. With `CCN1C(=O)c2ccc(C(=O)Nc3nccs3)cc2C1=O` the “activity, negative = inhibition” value was inactive: 9.3%. In the case of `CCCCCn1c(=O)[nH]c2cc(C(=O)Nc3ccc(F)c(F)c3)ccc2c1=O`, the Potency is reported as inconclusive [inhibitor, partial curve]. For `N#Cc1ccc(-c2cccs2)nc1SCC(=O)Nc1cccc(C(F)(F)F)c1`, the Potency was inconclusive [inhibitor, partial curve]. For `COc1ccccc1C1c2c(-c3ccc(Cl)cc3)n[nH]c2C(=O)N1c1ccc(C)cc1` (centres undefined), the Potency was inconclusive [inhibitor, single point]. For `Cc1cccc(NC(=O)c2cc(S(=O)(=O)NCCc3ccccc3)ccc2F)c1C`, the “activity, negative = inhibition” value was inactive: -7.49%. `CCN(CC)CCOC(=O)c1ccc(NC(=O)c2cc3c(=O)n(CC)c4ccccc4c3s2)cc1` was tested, and the Potency was inconclusive [inhibitor, partial curve]. `O=C(CSc1ccc2ccccc2c1)N1CCN(c2ccc(O)cc2)CC1` was tested, and the Potency was inconclusive [activator, single point]. In the case of `COc1ccc(N2CCN(c3ncnc4c3cnn4C)CC2)cc1`, the Potency is reported as inconclusive [inhibitor, single point]. For `O=S(=O)(NNc1ccc(Cl)nn1)c1ccc(F)cc1`, the Potency was inconclusive [inhibitor, single point]. In the case of `O=C(C1CCN(C2CC(=O)N(c3cccc(Cl)c3)C2=O)CC1)N1CCCCCC1` (centres undefined), the “activity, negative = inhibition” value is reported as inactive: 1.02%. `Cc1nnc(SCC2=C(C(=O)O)N3C(=O)C(NC(=O)c4cccc(F)c4F)C3SC2)s1` (centres undefined) was tested, and the Potency was inconclusive [inhibitor, single point]. In the case of `CCOc1cccc(NC(=O)C2CC(=O)N(CC)C(=Nc3ccc(F)cc3)S2)c1` (centres undefined), the Potency is reported as inconclusive [inhibitor, partial curve]. For `CC(C)(C)c1ccc(/C=C/C(=O)Nc2ccc(S(N)(=O)=O)cc2)cc1`, the Potency was inconclusive [inhibitor, partial curve]. With `CCOc1ccc(CCNC(=O)c2cc3cccc4c3n2CCS4)cc1` the Potency was inconclusive [inhibitor, single point]. For `COCCCNC(=O)c1cc2cc(S(=O)(=O)N3CCCCC3)ccc2n1C`, the “activity, negative = inhibition” value was inactive: -3.88%. For `CCC(C)(C)NC(=O)C1CCN(S(=O)(=O)c2ccc3c(c2)CCCN3C(C)=O)CC1`, the Potency was inconclusive [inhibitor, partial curve, poor fit]. In the case of `Cc1cc(C)c(NC(=O)CSc2ncc3c(n2)-c2cc(Cl)ccc2N(C)S3(=O)=O)c(C)c1`, the Potency is reported as inconclusive [inhibitor, full curve, poor fit]. In the case of `O=C(NCCN1CCOCC1)c1ccc(N2CCCC2)c([N+](=O)[O-])c1`, the “activity, negative = inhibition” value is reported as inactive: 0.295%. For `CCCCN(Cc1ccco1)C(=O)Cn1ncc2c(=O)oc3ccc(C)cc3c21`, the “activity, negative = inhibition” value was inactive: -5.44%. `CCN1C(=O)C(CC(=O)Nc2ccc(OC)cc2)N(CCc2ccc(F)cc2)C1=S` (centres undefined) was tested, and the Potency was inconclusive [inhibitor, partial curve]. With `Clc1cncc(Cl)c1NNc1c2ccccc2nc2ccccc12` the Potency was inconclusive [activator, partial curve]. `CN(C(=O)CSc1nnc(NC(=O)Nc2ccccc2)s1)c1ccccc1` was tested, and the Potency was inconclusive [inhibitor, partial curve]. In the case of `O=C(Nc1cccc(-c2nc3cccnc3s2)c1)c1cccnc1Cl`, the Potency is reported as inconclusive [inhibitor, full curve, poor fit]. In the case of `CCOC(=O)Cc1cc(-c2ccc(O)cc2)nc2ccc3ccccc3c12`, the Potency is reported as inconclusive [inhibitor, partial curve]. In the case of `O=C(CSc1ccccc1)N1CCN(C(=O)c2ccco2)CC1`, the “activity, negative = inhibition” value is reported as inactive: 12.6%. With `Cc1ccccc1CNC(=O)c1cnc2sc(N3CCC(C)CC3)nn2c1=O` the “activity, negative = inhibition” value was inactive: 3.36%. `CC(=O)N(C1=C(N2CCOCC2)C(=O)c2ccccc2C1=O)c1ccc(C(=O)O)cc1` was tested, and the Potency was inconclusive [inhibitor, partial curve]. For `COc1ccc2[nH]c(C)c(CCN(Cc3cccs3)C(=S)Nc3ccccc3)c2c1`, the “activity, negative = inhibition” value was inactive: 15%. For `Cc1ccc(/C=C/C(=O)NCc2ccco2)o1`, the Potency was inconclusive [inhibitor, single point]. With `O=C(Nc1cccc(S(=O)(=O)Nc2ccccc2F)c1)c1ccc2ccccc2n1` the Potency was inconclusive [inhibitor, partial curve, poor fit].
